The source of these data is ChEMBL document CHEMBL5107974, “Design, synthesis, and biological evaluation of new thalidomide-donepezil hybrids as neuroprotective agents targeting cholinesterases and neuroinflammation” (RSC Med Chem, 2022).

Common to all, as to settings: Electrophorus electricus
Data set [1] has as its system O=C(CN1C(=O)c2ccccc2C1=O)N1CCN(c2ccncc2)CC1. In words: Binding affinity to electric eel AChE assessed as maximum velocity using acetylcholine iodide as a substrate at 2 uM incubated for 10 mins by Lineweaver-Burk plot analysis.
Data set [2] shares this test system. In words: Binding affinity to electric eel AChE assessed as maximum velocity using acetylcholine iodide as a substrate at 4 uM incubated for 10 mins by Lineweaver-Burk plot analysis.
For data set [3] the test system is unchanged. Description: Binding affinity to electric eel AChE assessed as Km using acetylcholine iodide as a substrate at 2 uM incubated for 10 mins by Lineweaver-Burk plot analysis.
The test system is the same in data set [4]. Description: Binding affinity to electric eel AChE assessed as Km using acetylcholine iodide as a substrate at 4 uM incubated for 10 mins by Lineweaver-Burk plot analysis.

Regarding “Acetylcholinesterase (Electrophorus electricus) (no sequence given)”, the Vmax came out at 8.37 µM/min in data set [1] and 7.3 µM/min in data set [2]. In addition, the Km worked out at 156 µM in data set [3] and 254 µM in data set [4].

What is called Vmax is the rate approached at saturating substrate. The term Km denotes the substrate concentration at which the rate is half of its maximum.
